According to US20220340685A1, “COMBINATION THERAPY WITH ENTPD2 AND CD73 ANTIBODIES” (Novartis AG, priority 2019, published 2022):

T1: human ENTPD2 (Homo sapiens, UniProt Q9Y5L3)
T1 construct: residues 29-462 of human or cyno ENTPD2; GP67 signal peptide (N); made in house; host or cells: High Five (Trichoplusia ni) insect cells, baculovirus
T1 sequence (Q9Y5L3 29-462): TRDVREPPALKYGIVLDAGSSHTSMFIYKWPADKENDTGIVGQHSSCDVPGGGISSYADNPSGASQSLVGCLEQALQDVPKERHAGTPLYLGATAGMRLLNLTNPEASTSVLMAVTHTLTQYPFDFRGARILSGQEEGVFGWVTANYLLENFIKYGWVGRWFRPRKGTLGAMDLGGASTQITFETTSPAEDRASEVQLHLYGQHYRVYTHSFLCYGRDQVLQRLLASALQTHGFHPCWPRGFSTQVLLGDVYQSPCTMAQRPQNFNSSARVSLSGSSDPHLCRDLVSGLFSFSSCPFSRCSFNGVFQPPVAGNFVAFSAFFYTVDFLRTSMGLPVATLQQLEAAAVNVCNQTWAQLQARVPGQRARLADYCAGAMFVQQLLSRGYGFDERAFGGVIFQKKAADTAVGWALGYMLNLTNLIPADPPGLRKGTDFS

T2: mouse ENTPD2 (Mus musculus, UniProt O55026)
T2 construct: residues 29-462 of mouse or rat ENTPD2 (the extracellular domain); His6; mouse IgK signal peptide (N); made in house; host or cells: FreeStyle 293-F cells (transient)
T2 sequence (O55026 29-462): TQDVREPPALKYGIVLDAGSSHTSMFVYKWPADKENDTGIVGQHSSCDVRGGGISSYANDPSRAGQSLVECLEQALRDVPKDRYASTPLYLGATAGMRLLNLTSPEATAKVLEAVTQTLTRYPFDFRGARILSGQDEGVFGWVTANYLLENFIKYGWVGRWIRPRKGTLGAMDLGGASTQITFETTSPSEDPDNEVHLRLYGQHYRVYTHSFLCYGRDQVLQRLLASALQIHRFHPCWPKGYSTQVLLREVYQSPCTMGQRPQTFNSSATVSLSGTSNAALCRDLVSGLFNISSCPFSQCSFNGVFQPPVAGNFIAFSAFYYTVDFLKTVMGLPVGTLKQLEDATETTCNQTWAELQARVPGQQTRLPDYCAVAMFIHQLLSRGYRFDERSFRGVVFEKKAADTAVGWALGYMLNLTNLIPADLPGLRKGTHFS


What was measured:
human ENTPD2 = target: T1, human ENTPD2; assay: Biacore SPR kinetic affinity to human ENTPD2 ECD; assay type: binding; settings: 25° C.; for Human ENTPD2 ka: association rate; for Human ENTPD2 kd: dissociation rate
Protocol: (§1) Biacore Screening: Affinity was measured by determining the kinetic rate constants using surface plasmon resonance (SPR) on a Biacore T200 or T100 with the T200 sensitivity upgrade instrument (Biacore, GE Healthcare). Antibodies were captured on CM5 sensor chips (Biacore, GE Healthcare) prepared with a mouse anti-human IgG Fc antibody (ThermoFisher catalogue # 05-4200) amine coupled to the surface. […] ENTPD2 analytes were allowed to associate for 180 s and dissociate for up to 1800 s depending on the off-rate of the antibody at a flow rate of 30 μL/min. The running buffer was PBS pH 7.2 (prepared from a Corning 10X stock, cat# 46-013-CM) +0.05% Tween 20. Regeneration was accomplished with 30 s injections of 3 or 4 M MgCl2 to remove all the captured antibody and remaining complex from the surface, after which fresh antibody was captured. The raw data were analyzed using Biacore T200 Evaluation Software version 1.0 and fit to a 1:1 binding model, with all parameters set to fit globally except for RI, which was set to fit locally.

[1] = system: cynomologus (cyno) ENTPD2; assay: Biacore SPR kinetic affinity to cyno ENTPD2 ECD; assay type: binding, cynomolgus monkey; settings: 25° C.; for Cyno ENTPD2 ka: association rate; for Cyno ENTPD2 kd: dissociation rate
Protocol: as §1

mouse ENTPD2 = target: T2, mouse ENTPD2; assay: Antibody specificity: binding to mouse ENTPD2; settings: for Mouse ENTPD2 BIACore KD (nM): Biacore SPR
Protocol: ELISA screening on directly coated antigen: Maxisorp™ 384-well plates (Thermo Nunc) were coated with 2 μg/ml of recombinant ENTPD2 diluted in PBS. After blocking with 2% BSA (bovine serum albumin) in PBS for 1 hr at room temperature, washing plates 3× with TBST (0.05% Tween 20 in TBS, Sigma Cat# T9039), primary antibodies in TBST and 2% BSA were added in a serial dilution and incubated for 1 hr at room temperature. Plates were washed again and bound antibodies were detected by incubation with anti-hFc gamma conjugated to horseradish peroxidase (HRP; Jackson ImmunoResearch, Cat#115-035-098, diluted 1:5000 in 1× TBST+2% BSA) for 1 hr at room temperature followed by washing with TBST and afterwards addition of SureBlue Peroxidase substrate (KPL, #52-00-03) substrate. After 15 min, absorbance at 650 nm was recorded and analyzed in GraphPad Prism6.
as §1
Antibody specificity for mAb1-mAb10 was confirmed. […] Antibodies mAb8, mAb9, and mAb10 show weak affinity to mouse ENTPD2. None of the selected antibodies bind to rat ENTPD2.

Row | Human ENTPD2 ka (human ENTPD2) | Human ENTPD2 kd (human ENTPD2) | Cyno ENTPD2 kd [1] | binding / cross-reactivity to mouse ENTPD2 (mouse ENTPD2) | Mouse ENTPD2 BIACore KD (nM) (mouse ENTPD2) | Molecule | Cyno ENTPD2 ka [1]
1 | 290000 M⁻¹ s⁻¹ | 0.00094 s⁻¹ | 0.024 s⁻¹ | weak affinity | Weak | mAb8: anti-human ENTPD2 antibody; probably heavy chain SEQ ID NO: 93, light chain SEQ ID NO: 104 (antibody) heavy: QVQLQQSGPGLVKPSQTLSLTCAISGDSVSSSSAAWNWIRQSPSRGLEWLGRIYYRSKWYNDYAVSVKSRITINPDTSKNQFSLQLNSVTPEDTAVYYCARGSYVTSSYEGFDYWGQGTLVTVSSASTKGPSVFPLAPSSKSTSGGTAALGCLVKDYFPEPVTVSWNSGALTSGVHTFPAVLQSSGLYSLSSVVTVPSSSLGTQTYICNVNHKPSNTKVDKRV[left out - human IgG1 Fc] light: SYELTQPLSVSVALGQTARITCSGDNLPEKYAYWYQQKPGQAPVLVIYDDNKRPSGIPERFSGSNSGNTATLTISRAQAGDEADYYCQSYGKWGWTWVFGGGTKLTVLGQPKAAPSVTLFPPSSEELQANKATLVCLISDFYPGAVTVAWKADSSPVKAGVETTTPSKQSNNKYAASSYLSLTPEQWKSHRSYSCQVTHEGSTVEKTVAPTECS | 300000 M⁻¹ s⁻¹
2 | 380000 M⁻¹ s⁻¹ | 0.0003 s⁻¹ | 0.021 s⁻¹ | weak affinity | – | mAb9: anti-human ENTPD2 antibody; probably heavy chain SEQ ID NO: 117, light chain SEQ ID NO: 127 (antibody) heavy: QVQLVQSGAEVKKPGSSVKVSCKASGGTFDSYAVSWVRQAPGQGLEWMGRIVPWLGHTQYAQKFQGRVTITADESTSTAYMELSSLRSEDTAVYYCARESPGYRYSFDVWDQGTLVTVSSASTKGPSVFPLAPSSKSTSGGTAALGCLVKDYFPEPVTVSWNSGALTSGVHTFPAVLQSSGLYSLSSVVTVPSSSLGTQTYICNVNHKPSNTKVDKRV[left out - human IgG1 Fc] light: SYELTQPLSVSVALGQTARITCSGDAIGEKYVYWYQQKPGQAPVLVIYDDNNRPSGIPERFSGSNSGNTATLTISRAQAGDEADYYCASYDLQQARWVFGGGTKLTVLGQPKAAPSVTLFPPSSEELQANKATLVCLISDFYPGAVTVAWKADSSPVKAGVETTTPSKQSNNKYAASSYLSLTPEQWKSHRSYSCQVTHEGSTVEKTVAPTECS | 990000 M⁻¹ s⁻¹
3 | 340000 M⁻¹ s⁻¹ | 0.00024 s⁻¹ | 0.018 s⁻¹ | weak affinity | Weak | mAb10: anti-human ENTPD2 antibody; probably heavy chain SEQ ID NO: 134, light chain SEQ ID NO: 127 (antibody) heavy: QVQLVQSGAEVKKPGSSVKVSCKASGGTFDSYAVSWVRQAPGQGLEWMGRIVPWLGFTRYAQKFQGRVTITADESTSTAYMELSSLRSEDTAVYYCARESPGYRYSFDVWDQGTLVTVSSASTKGPSVFPLAPSSKSTSGGTAALGCLVKDYFPEPVTVSWNSGALTSGVHTFPAVLQSSGLYSLSSVVTVPSSSLGTQTYICNVNHKPSNTKVDKRV[left out - human IgG1 Fc] light: SYELTQPLSVSVALGQTARITCSGDAIGEKYVYWYQQKPGQAPVLVIYDDNNRPSGIPERFSGSNSGNTATLTISRAQAGDEADYYCASYDLQQARWVFGGGTKLTVLGQPKAAPSVTLFPPSSEELQANKATLVCLISDFYPGAVTVAWKADSSPVKAGVETTTPSKQSNNKYAASSYLSLTPEQWKSHRSYSCQVTHEGSTVEKTVAPTECS | 1.2e+06 M⁻¹ s⁻¹
